Each structure is given as a SMILES string. The list shows a part of the results. Many values rest on one well or one pass, so single values are uncertain.
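Further: cells treated in 1,536-well plates, then fixed and DAPI-stained, with nuclei counted from automated high-throughput microscope images.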

This assay has as its system G361. In words: cell count relative to DMSO control; melanoma cells; higher = more viable cells. As to conditions: library dose: standard library concentration; 72 h.
Consider `Nc1ncn([C@H]2C[C@H](O)[C@@H](CO)O2)c(=O)n1` [decitabine] + C#Cc1cccc(Nc2ncnc3cc(OCCOC)c(OCCOC)cc23)c1 [erlotinib] (first compound 0.5 µM, partner dose 4 µM), for which the cell count was 69.7%. In turn, `CC(=O)O[C@@]12CO[C@@H]1C[C@H](O)[C@@]1(C)C(=O)[C@H](O)C3=C(C)[C@@H](OC(=O)[C@H](O)[C@@H](NC(=O)OC(C)(C)C)c4ccccc4)C[C@@](O)([C@@H](OC(=O)c4ccccc4)[C@H]21)C3(C)C` [Docetaxel] + OCc1c[nH]c2ccccc12 [Indole-3-carbinol] (first compound 0.0005 µM, partner dose 4 µM) had a cell count of 19.6%.

`CO[C@H]1C[C@@H]2CC[C@@H](C)[C@@](O)(O2)C(=O)C(=O)N2CCCC[C@H]2C(=O)O[C@H]([C@H](C)C[C@@H]2CC[C@@H](OCCO)[C@H](OC)C2)CC(=O)[C@H](C)/C=C(\C)[C@@H](O)[C@@H](OC)C(=O)[C@H](C)C[C@H](C)/C=C/C=C/C=C/1C` [everolimus] + COc1cc(Nc2ncc(F)c(Nc3ccc4c(n3)NC(=O)C(C)(C)O4)n2)cc(OC)c1OC [Tamatinib] (first compound 0.1 µM, partner dose 2 µM) gave a cell count of 72.2%.

In turn, `Nc1ncn([C@H]2C[C@H](O)[C@@H](CO)O2)c(=O)n1` [decitabine] + CN(C)S(=O)(=O)c1ccc2c(c1)/C(=C/c1cc3c([nH]1)CCCC3)C(=O)N2 [SU6656] (first compound 0.5 µM, partner dose 2 µM) displayed a cell count of 72%.

Molecule `CO[C@H]1C[C@@H]2CC[C@@H](C)[C@@](O)(O2)C(=O)C(=O)N2CCCC[C@H]2C(=O)O[C@H]([C@H](C)C[C@@H]2CC[C@@H](OCCO)[C@H](OC)C2)CC(=O)[C@H](C)/C=C(\C)[C@@H](O)[C@@H](OC)C(=O)[C@H](C)C[C@H](C)/C=C/C=C/C=C/1C` [everolimus] + COc1cc2ncnc(Nc3ccc(Oc4ccccc4)cc3)c2cc1OC [SrcI1] (first compound 0.1 µM, partner dose 10 µM) yielded a cell count of 36.7%. The result for `CO[C@H]1C[C@@H]2CC[C@@H](C)[C@@](O)(O2)C(=O)C(=O)N2CCCC[C@H]2C(=O)O[C@H]([C@H](C)C[C@@H]2CC[C@@H](OCCO)[C@H](OC)C2)CC(=O)[C@H](C)/C=C(\C)[C@@H](O)[C@@H](OC)C(=O)[C@H](C)C[C@H](C)/C=C/C=C/C=C/1C` [everolimus] + COc1ccc(-c2ccc3c(N4CCOCC4)nc(N4C[C@@H](C)O[C@@H](C)C4)nc3n2)cc1CO [KU0063794] (first compound 0.1 µM, partner dose 0.1 µM) reads 41.2%.

`CC(=O)c1c(C)c2cnc(Nc3ccc(N4CCNCC4)cn3)nc2n(C2CCCC2)c1=O` [palbociclib] + COc1ccc(Cl)c(Nc2nc3ccccc3nc2NS(=O)(=O)c2cccc(NC(=O)C(C)(C)N)c2)c1 [XL147] (first compound 0.2 µM, partner dose 4 µM) yielded a cell count of 73.6%. Consider `CC(=O)c1c(C)c2cnc(Nc3ccc(N4CCNCC4)cn3)nc2n(C2CCCC2)c1=O` [palbociclib] + COc1ccc2c(c1)CCC1C2CCC2(C)C(NCCCCCCN3C(=O)C=CC3=O)CCC12 [U73122] (first compound 0.2 µM, partner dose 2 µM), for which the cell count was determined as 110%. `Nc1ccn([C@@H]2O[C@H](CO)[C@@H](O)C2(F)F)c(=O)n1` [gemcitabine] + CO[C@@H]1[C@H](N(C)C(=O)c2ccccc2)C[C@H]2O[C@]1(C)n1c3ccccc3c3c4c(c5c6ccccc6n2c5c31)C(=O)NC4 [Midostaurin] (first compound 0.002 µM, partner dose 0.4 µM) returned a cell count of 38.5%.

`Nc1ccn([C@@H]2O[C@H](CO)[C@@H](O)C2(F)F)c(=O)n1` [gemcitabine] + Cc1nc(Nc2ncc(C(=O)Nc3c(C)cccc3Cl)s2)cc(N2CCN(CCO)CC2)n1 [dasatanib] (first compound 0.002 µM, partner dose 0.02 µM) had a cell count of 33.5%. As for `CC(=O)O[C@@]12CO[C@@H]1C[C@H](O)[C@@]1(C)C(=O)[C@H](O)C3=C(C)[C@@H](OC(=O)[C@H](O)[C@@H](NC(=O)OC(C)(C)C)c4ccccc4)C[C@@](O)([C@@H](OC(=O)c4ccccc4)[C@H]21)C3(C)C` [Docetaxel] + Cc1cc(Nc2cc(N3CCN(C)CC3)nc(/C=C/c3ccccc3)n2)n[nH]1 [ENMD2076] (first compound 0.0005 µM, partner dose 0.2 µM), the cell count was 16.6%.
